Reference: publication PMC4336329 (PLoS ONE, 2015)
Among all 310,000 compounds or so, about 2,200 (0.71%) showed an effect of 50% or more. The effect is printed as a negative number. The list shows a part of the results.

target: human ether-à-go-go-related gene (hERG) potassium channel (human, UniProt Q12809); test: primary screen, population patch clamp on CHO cells stably expressing hERG
Sequence (Q12809 whole entry, looked up): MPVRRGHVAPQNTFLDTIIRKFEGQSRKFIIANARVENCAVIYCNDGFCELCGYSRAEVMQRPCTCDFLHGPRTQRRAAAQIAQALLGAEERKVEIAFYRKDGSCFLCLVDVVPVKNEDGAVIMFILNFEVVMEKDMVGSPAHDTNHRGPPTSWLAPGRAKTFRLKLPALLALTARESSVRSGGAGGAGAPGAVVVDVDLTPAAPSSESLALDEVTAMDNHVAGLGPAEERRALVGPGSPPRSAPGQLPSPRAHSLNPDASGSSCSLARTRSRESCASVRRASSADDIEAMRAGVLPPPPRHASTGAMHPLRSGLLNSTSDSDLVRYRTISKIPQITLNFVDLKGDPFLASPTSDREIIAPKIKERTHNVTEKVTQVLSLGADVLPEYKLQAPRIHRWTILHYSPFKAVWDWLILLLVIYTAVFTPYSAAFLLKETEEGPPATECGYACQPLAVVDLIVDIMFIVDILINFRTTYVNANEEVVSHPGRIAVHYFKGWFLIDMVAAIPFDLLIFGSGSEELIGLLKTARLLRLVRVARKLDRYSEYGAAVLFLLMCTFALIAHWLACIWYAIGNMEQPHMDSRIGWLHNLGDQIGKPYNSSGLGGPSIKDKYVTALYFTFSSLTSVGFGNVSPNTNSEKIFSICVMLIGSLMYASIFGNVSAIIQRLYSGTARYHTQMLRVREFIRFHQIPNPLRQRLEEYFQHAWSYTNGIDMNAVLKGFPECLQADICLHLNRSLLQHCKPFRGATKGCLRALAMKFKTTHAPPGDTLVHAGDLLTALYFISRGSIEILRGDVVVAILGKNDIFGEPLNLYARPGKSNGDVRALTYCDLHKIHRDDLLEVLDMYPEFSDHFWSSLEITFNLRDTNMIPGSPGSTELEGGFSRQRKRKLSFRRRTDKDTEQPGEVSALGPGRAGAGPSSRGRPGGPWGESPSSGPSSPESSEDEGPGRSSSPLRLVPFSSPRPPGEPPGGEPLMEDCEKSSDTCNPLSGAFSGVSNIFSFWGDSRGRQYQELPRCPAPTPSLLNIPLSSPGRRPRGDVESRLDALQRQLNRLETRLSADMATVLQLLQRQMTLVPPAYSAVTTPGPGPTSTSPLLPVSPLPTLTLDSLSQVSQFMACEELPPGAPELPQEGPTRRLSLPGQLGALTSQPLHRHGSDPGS

SMILES | hERG current change (%, negative = inhibition) at 1uM [%]
O=C(C1CCN(C2CC(=O)N(c3ccc(F)cc3)C2=O)CC1)N1CCOCC1 (stereo not drawn) | 11.2
O=C(Cn1cncn1)c1ccc(Cl)cc1 | 8.74
CCOc1ccc(NC(=O)c2ccc(NC(=S)NC3CCCCC3)cc2)cc1 | 16.3
CC(C)c1ccc(NC(=O)CSc2nc3ccsc3c(=O)n2Cc2ccc(C(=O)O)cc2)cc1 | 8.26
Cc1c(C(=O)O)cccc1-c1ccc(C=O)o1 | 12.3
CCCc1nc2c([nH]1)C(c1cccnc1)C(C#N)=C(N)O2 (stereo not drawn) | 13.1
Cc1cccc(-c2nc3c(c(=O)c4ccccc4n3C)c(=O)n2-c2ccccc2)c1 | 12.3
Cc1[nH]oc(=O)c1N=Nc1ccc2[nH]c(=O)[nH]c2c1 | 11.3
CC(C)c1ccc(NC2CCCN(C(=O)CCN3CCCC3=O)C2)cc1 (stereo not drawn) | 13.5
CN(CC(=O)Nc1ccccc1Cl)C(=O)CSc1nncs1 | 15.7
Cc1ccc(C)c(N2CCN(c3ccc(N4C(=O)COCC4=O)cc3[N+](=O)[O-])CC2)c1 | 15.7
COc1ccc2nc(C)c(C(=O)NN)cc2c1 | 35.1
CCCNC(=O)Cn1cnc([N+](=O)[O-])n1 | 14.6
CCCCC(=O)N/N=C/c1c(O)n(CC)c(=S)n(CC)c1=O | 11.4
CCCn1c(SCC(=O)c2ccc3c(c2)NC(=O)CO3)nc2ccccc21 | 8.63
Cc1nc(C(Cl)(Cl)Cl)nc2[nH]ccc(=O)c12 | 8.68
Cc1cc(NC(=O)CSc2ccc(-c3ccccc3)nn2)no1 | 2.63
CCCCN1CN(S(=O)(=O)c2ccc(OC)cc2)c2nc3ccccc3nc21 | -5.93
CC1(C)NC(=O)N(Cc2cc(=O)n3ccsc3n2)C1=O | 16.6

SMILES | hERG current change (%, negative = inhibition) at 1uM [%]
CCC1CCCCN1C(=O)c1sc2ncnc(N(CC)CC)c2c1C (stereo not drawn) | 3.18
O=C(Nn1c(-c2ccncc2)nc2ccccc2c1=O)c1ccccc1Br | 13.6
O=C(COC(=O)c1cccc([N+](=O)[O-])c1)NCc1cccs1 | 9.54
Cc1nc2ncnn2c(C)c1Cc1ccccc1Cl | 11.7
COc1ccccc1C(=O)N/C(=N/c1nc(C)cc(C)n1)Nc1ccccc1 | 8.05
CC(=O)Nc1ccc(S(=O)(=O)NC2(C(F)(F)F)NC(=O)N(c3ccc(Cl)cc3)C2=O)cc1 (stereo not drawn) | 16.1
CC1(C)OC2OC(C(=O)N/N=C/c3ccccc3F)C3OC(C)(C)OC3C2O1 (stereo not drawn) | 10.9
CC(C)COC(=O)C1C2C=CC3(CN(C(C)c4ccc(Br)cc4)C(=O)C13)O2 (stereo not drawn) | 6.84
CC(=O)Nc1ccccc1OCC(=O)NC(C)c1ccc(F)cc1 (stereo not drawn) | 8.67
COC(=O)C1=CN(Cc2cccs2)C=C(C(=O)OC)C1c1cccc(OC)c1OC | 5.14
COc1ccccc1C1CCN(C(=S)Nc2ccc(Br)cc2)CC1 | 8.67
Cc1cc(C)cc(SCc2noc(C(=O)NCCC(C)C)c2C(=O)NCCC(C)C)c1 | 11.5
COc1ccc(CC(=O)N/N=C(\C)c2cccs2)cc1 | 5.82
CCCC1Cc2nc(N3CCCCC3)c(C#N)cc2CO1 (stereo not drawn) | 3.43
O=[N+]([O-])C(=C1Nc2ccccc2N1)/C(Cl)=C(/Cl)Br | 14.3
Cc1ccc(/C=N/NC(=O)NN(C)c2ncc(C(F)(F)F)cc2Cl)cc1 | 3.5
Cn1c(NC(=O)c2ccc(S(=O)(=O)N3CCCCC3)cc2)cc(=O)n(C)c1=O | 11.4
O=C(NNC(=O)c1ccc(Cl)c(Cl)c1)c1ccncc1 | 14.3
COc1cccc(NC(=O)Nc2ccc3c(c2)nc(C)n3C)c1 | -7.91

SMILES | hERG current change (%, negative = inhibition) at 1uM [%]
CNS(=O)(=O)c1cccc(C(=O)OCC(=O)Nc2ccc(N3CCCCC3)cc2)c1 | 9.03
Clc1ccc2c(c1)c1cc(Cl)ccc1n2CN1CCOCC1 | 0.387
C[C@@H](C(=O)OCC(=O)Nc1cc(S(=O)(=O)N2CCOCC2)ccc1Cl)N1C(=O)C2CCCCC2C1=O (stereo partly drawn) | -7.57
CCN(CC)S(=O)(=O)c1ccc(C(=O)Oc2coc(CSc3nc(C)cc(C)n3)cc2=O)cc1 | 0.0562
N#Cc1nc(COc2ccccc2)oc1N1CCOCC1 | 1.61
c1ccc2c(N3CCOCC3)nc(-c3ccncc3)nc2c1 | -9
COc1cccc(C2N(c3ccc(Cl)cc3)C(=O)C3CCCN32)c1 (stereo not drawn) | 9.95
C=CCNC(=O)c1c(N)n(-c2ccc3c(c2)OCO3)c2nc3ccccc3nc12 | 24.8
COC(=O)c1cnn(-c2ccccc2)c1/C=N/NC(=S)Nc1ccc(Cl)cc1 | 11.3
CCn1ncc(Br)c1C(=O)Nc1ccccc1C(F)(F)F | 7.62
CCOC(=O)c1cccc(NC(=O)CCNS(=O)(=O)c2cccc3nonc23)c1 | 4.27
CCN(Cc1ccccc1OC)CC1CCCN(CCc2cccc(OC)c2)C1 (stereo not drawn) | 4.03
CCC(CC)c1nnc(NC(=O)c2nn(C)c(=O)c3ccccc23)s1 | 7.84
O=c1[nH]c2ccccc2nc1/C=C/c1ccc(F)cc1 | 6.51
CCOC(=O)c1c(C)n(Cc2ccccc2)c2ccc(OCC(O)Cn3nc(C)nc3C)cc12 (stereo not drawn) | 13.6
C(=N\Nc1nccc(-c2cccnc2)n1)/c1ccccc1 | 8.62
COC(=O)Nc1ccc2ncn(C)c(=O)c2c1 | 9.09
O=C(CN(c1ccccc1)S(=O)(=O)c1ccc(Cl)cc1)Nc1cccnc1 | -5.73
O=C(COc1ccc(C(=O)c2ccccc2)cc1)Nc1ncccc1O | 15.9
